# From the supplement of paper PMC10322689
# “And” between values parts separate entries of the source, which are not always exact repeats. Identical values can stand only once. ± gives the standard deviation of the averaged measurements. The list shows a part of the results. Repeats are few or missing, and single values can be far off.
# Test system: mouse mesenchymal chondrosarcoma cells (HEY1-NCOA2)
# Assay: XTT absorbance relative to DMSO control (cell viability) (fraction of DMSO control); higher = more viable cells / less growth inhibition
row,SMILES,XTT absorbance
1,CC1=C2C[C@H]3[C@@H](CC=C4C[C@@H](O)CC[C@@]43C)[C@@H]2CC[C@]12O[C@@H]1C[C@H](C)CN[C@H]1[C@H]2C [cyclopamine],1.02
2,Cc1sc2c(c1C)C(c1ccc(Cl)cc1)=N[C@@H](CC(=O)OC(C)(C)C)c1nnc(C)n1-2,0.605
3,CC[C@@]1([C@@H]2O[C@@H]([C@H]3O[C@@](O)(CO)[C@H](C)C[C@@H]3C)C[C@@H]2C)CC[C@H]([C@]2(C)CC[C@]3(C[C@H](O)[C@@H](C)[C@@H]([C@@H](C)[C@@H](OC)[C@H](C)C(=O)O)O3)O2)O1 [Monensin],0.362
4,C=C1[C@@H](C)[C@H]2[C@H](Cc3ccccc3)NC(=O)[C@]23[C@H](OC(C)=O)/C=C/[C@@](C)(O)C(=O)[C@@H](C)C/C=C/[C@H]3[C@@H]1O [Cytochalasin D],0.436
5,COc1ccc2c3c([nH]c2c1)[C@H](C=C(C)C)N1C(=O)[C@@H]2CCCN2C(=O)[C@@H]1C3 [Fumitremorgin C],0.915
6,"C[C@H]1O[C@@H](n2cnc3c(N)ncnc32)C[C@@H]1O [2',5'-dideoxyadenosine]",0.92
7,C[C@H]1CCC/C=C/[C@@H]2C[C@H](O)C[C@H]2[C@H](O)/C=C/C(=O)O1 [brefeldin A],0.188
8,C[C@H](CCC(=O)O)C[C@H](C)C[C@H](C)C(=O)/C=C(\O)[C@H](C)C[C@H](C)C/C=C/[C@@H](C)[C@@H](O)[C@@H](C)[C@@H](O)C[C@@H]1CC[C@@](C)([C@H]2CC[C@@](C)([C@@H](C)O)O2)O1 [Ionomycin],0.856
9,COC[C@H]1OC(=O)c2coc3c2[C@@]1(C)C1=C(C3=O)[C@@H]2CCC(=O)[C@@]2(C)C[C@H]1OC(C)=O [Wortmannin],0.828 ± 0.024
10,CC(C)[C@@H]1NC(=O)[C@H](C)OC(=O)[C@@H](C(C)C)NC(=O)[C@@H](C(C)C)OC(=O)[C@H](C(C)C)NC(=O)[C@H](C)OC(=O)[C@@H](C(C)C)NC(=O)[C@@H](C(C)C)OC(=O)[C@H](C(C)C)NC(=O)[C@H](C)OC(=O)[C@@H](C(C)C)NC(=O)[C@@H](C(C)C)OC1=O [Valinomycin],0.815
11,C[C@@H]1O[C@@H](O[C@H]2C[C@@H](O)[C@]3(CO)[C@H]4[C@H](O)C[C@]5(C)[C@@H](C6=CC(=O)OC6)CC[C@]5(O)[C@@H]4CC[C@]3(O)C2)[C@H](O)[C@H](O)[C@H]1O [Ouabain],0.929
12,C/C(O)=C(\C#N)C(=O)Nc1cc(Br)ccc1Br,0.983 ± 0.015
13,CC(C)(O)/C=C/C(=O)[C@](C)(O)[C@H]1[C@H](O)C[C@@]2(C)[C@@H]3CC=C4[C@@H](C=C(O)C(=O)C4(C)C)[C@]3(C)C(=O)C[C@]12C [Cucurbitacin I],0.505
14,C[C@]12CCC(=O)C(O)=C1CC[C@@H]1[C@@H]2CC[C@]2(C)C(=O)CC[C@@H]12 [Formestane],1.03
15,O=C(O)c1nn(Cc2ccc(Cl)cc2Cl)c2ccccc12 [Lonidamine],0.919
16,O=C1Nc2ccccc2C2(CCN(CCc3ccc(C(F)(F)F)cc3)CC2)O1,0.981
17,COc1ccc(C[C@H]2NC[C@H](O)[C@H]2OC(C)=O)cc1 [anisomycin],0.23
18,COC(=O)C1(OC)CC2OC1(C)n1c3ccccc3c3c4c(c5c6ccccc6n2c5c31)C(=O)N(C)C4 (stereo not drawn),0.95 and 0.962
19,N[C@@H]1C[C@H]1c1cc(F)cc(F)c1OCc1ccccc1 [S2101 (LSD1 inhibitor II)],0.976
20,C/C=C(/C)C(=O)O[C@H]1C(C)=C2[C@H]([C@@H]1OC(=O)CCCCCCC)[C@@](C)(OC(C)=O)C[C@H](OC(=O)CCC)[C@@]1(O)[C@H]2OC(=O)[C@@]1(C)O [Thapsigargin],0.279
21,CN[C@@H]1C[C@H]2O[C@@](C)([C@@H]1OC)n1c3ccccc3c3c4c(c5c6ccccc6n2c5c31)C(=O)NC4 [Staurosporine],0.144
22,C[C@@H]1C[C@@H]([C@H](O)CC2CC(=O)NC(=O)C2)C(=O)[C@@H](C)C1 [Cycloheximide],0.263
23,CC(=O)N[C@H]1[C@@H](O[C@@H]2O[C@H](CC(O)[C@H]3O[C@@H](n4ccc(=O)[nH]c4=O)[C@H](O)[C@@H]3O)[C@H](O)[C@H](O)[C@H]2NC(=O)/C=C/CC(C)C)O[C@H](CO)[C@@H](N)[C@@H]1O (stereo partly drawn) [Tunicamycin],0.322
